PubChem BioAssay AID485297 (National Center for Advancing Translational Sciences (NCATS), 2010)
The whole screen tested about 320,000 compounds, of which about 9,100 (2.8%) were called active. The shares of active, inactive and inconclusive entries below differ from those in the screen. Calls follow the shape of the dose curve; as a rule, active = well fitted activation curve with a large enough effect; inconclusive = small, poorly fitted or top-dose-only effect; inactive = no such curve, though single readings can be large or run the other way. Where the call is inconclusive, the potency comes from a doubtful curve fit.

Experiment: qHTS Assay for Rab9 Promoter Activators; also: nearly all actives have a fitted effect of over 60% in size
Conditions: Huh7 Rab9 promoter-luciferase reporter, luminescence, 24 h; series mostly up to 9.22 µM
How it was run: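 Luminescence read-out: Huh7 cells stably expressing Rab9-luciferase, treated 24 h with compound at 37 °C, then lysed with luciferase reagent for 10 min at ambient before reading.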
Potency is read from the fitted curve at half-maximal effect; tags tell the direction and shape of the fitted curve.

Potency, active:
C=CCNc1oc(/C=C/c2ccccc2)nc1C#N 2.24 µM
O=C(CSc1nnc(-c2ccncc2)o1)Nc1cc(F)ccc1F 2.82 µM
COc1ccc2c(c1)CC/C(=C/c1ccco1)C2=O 3.55 µM
O=C(NC1=NCCS1)c1csc2ccccc12 1.58 µM
CC(C)c1ccc(C(=O)NN2C(=O)C3CCCCC3C2=O)cc1 (centres undefined) 3.16 µM
Nc1c(-c2cccs2)cnc2c(-c3ccc(F)cc3)cnn12 0.355 µM
N/C(=N\OC(=O)c1ccc2ccccc2c1)c1ccccc1Cl 3.98 µM
Cc1ccccc1OCCOc1cccc(/C=N/NC(=O)Cc2nnc(N)s2)c1 0.447 µM
CCN(CC)c1ccc(C(=O)Nc2cccc(F)c2)cc1 1.12 µM
Cc1ccccc1OCc1nnc2c3cnn(C)c3ncn12 3.98 µM
CNc1ncc(C(=O)c2ccc(-c3ccccc3)cc2)s1 2.51 µM
CC(C)CSC1=NSC2=NC(=O)/C(=C\c3ccccc3)C(=N)N12 2.82 µM
COc1ccc(-c2nc3ccccc3[nH]2)cc1 0.631 µM
c1ccc2c(c1)Nc1cc3ccccc3cc1S2 3.55 µM
Cc1ccc2nc(-c3ccc(SCC(=O)N4CCc5ccccc54)nc3)[nH]c2c1 3.16 µM
O=C(O)c1cc(-c2ccc3ccccc3n2)nc2ccccc12 2.82 µM
Cc1ccc(C(=O)Nc2ccc(N3CCN(C)CC3)cc2)cc1C 0.708 µM
Cc1ccc(NC(=O)CSc2nccn2Cc2ccco2)cc1 4.47 µM

Potency, inactive:
O=C(Nc1ccc(Cl)cc1C(F)(F)F)C(Sc1cccc[n+]1[O-])c1ccccc1 (centres undefined)
O=C(Cc1c(F)cccc1Cl)OCN1C(=O)c2ccccc2C1=O
CC(=O)c1ccc(NC(=O)CSC(=S)N2CCCC2)cc1
COc1ccc(NC(=O)N(Cc2cccs2)Cc2cc3cc4c(cc3[nH]c2=O)OCO4)cc1
Cc1cccc(-n2cnc(C(=O)O)c2)n1
CC(=O)Nc1ccc2[nH]c3ccccc3c2c1
CC(NS(=O)(=O)c1ccc(OCC(=O)NCc2ccccn2)cc1)c1ccccc1 (centres undefined)
CC(=O)NCCCc1nc2ccccc2n1Cc1cc(C)ccc1C
Fc1ccc(C2CCCN2Cc2nc(CC3CC3)no2)cc1 (centres undefined)
CCOC(=O)C1CCN(S(=O)(=O)c2cc(C(=O)OC)n(C)c2)CC1
O=c1cc(CSc2nnc(NC3CCCCC3)s2)nc2sccn12
O=C(NCCc1cn2ccccc2n1)c1cc(COc2ccc3ncccc3c2)on1
CCN(CC)S(=O)(=O)c1ccc(N2CCOCC2)c(NC(=O)C(=O)c2c(-c3ccccc3)cc3ccccn23)c1
Cc1ccsc1C(=O)N(C)CC(=O)Nc1ccccc1Br
CCC1=C(OC(=O)N(CC)CC)N2C(=O)OC(=NCC(=O)OC)[C@]2(Cc2ccccc2)[C@H]2C1=CC[C@H]1C(=O)NC(=O)[C@H]12
Cc1sc2nc(-c3ccccc3)oc(=O)c2c1C
O=C1c2ccccc2CCC12N=NCC2c1ccc(Cl)cc1 (centres undefined)
Cc1nc2sccc2c(=O)n1N
CN1CCN(c2ccccc2NC(=O)c2ccc(N3CCCCC3)c([N+](=O)[O-])c2)CC1

Potency, inconclusive:
CN(C)c1ccc(/C=N/NC(=O)CCCCCNC(=O)c2ccccc2)cc1 5.62 µM [activator, single point]
CNC(=O)c1ccsc1NC(=O)c1sc2ccccc2c1Cl 5.62 µM [activator, single point]
Cc1c(NC(=O)c2cccs2)cccc1C(=O)O 2 µM [activator, partial curve]
O=C(NC1CCCC1)C(=O)c1c[nH]c2ccccc12 3.98 µM [activator, partial curve]
O=C(Nc1ccc2c(c1)oc1ccccc12)c1cccnc1 2.51 µM [activator, partial curve]
CCN(CC)C(=O)c1sc(NC(=O)c2ccc3c(c2)OCO3)c(C(N)=O)c1C 1.78 µM [activator, partial curve]
Cc1sc2c(c1C)CN(CCN1CCOCC1)CN2C(=O)c1ccccc1 5.62 µM [activator, single point]
O=C(/C=C\c1ccccc1OC(=O)c1ccccc1F)c1cc2ccccc2o1 4.47 µM [activator, single point]
O=[N+]([O-])c1cnccc1Nc1ccc(F)cc1 5.62 µM [activator, single point]
c1ccc(-c2ccc(-c3cn4c(n3)CCC4)cc2)cc1 0.316 µM [activator, full curve]
Cc1ccccc1C(=O)Nc1cccc(C(=O)N/N=C/c2ccc3c(c2)OCO3)c1 3.16 µM [activator, single point]
Cn1cccc1/C=N/NC(=O)c1sc2ccccc2c1Cl 3.16 µM [activator, single point]
Cc1ccc(-c2cc(C(=O)N/N=C/c3ccc([N+](=O)[O-])o3)c3ccccc3n2)o1 5.62 µM [activator, single point]
Cc1cccc(NC(=O)C(=O)NCCCc2ccccc2)c1 3.55 µM [activator, single point]
O=C1CCCN1CCCNc1ncnc2c1cnn2-c1ccc(Cl)cc1 2.82 µM [activator, partial curve]
CC(Cc1cccs1)NC(=O)Nc1ccc(F)cc1 (centres undefined) 3.98 µM [activator, partial curve]
O=C(/C=C/c1ccccc1)Nc1cccc(C(=O)O)c1 0.0794 µM [activator, full curve, poor fit]
COc1ccc(OCC(=O)Nc2ccccc2O)cc1 3.55 µM [activator, single point]
COc1ccc2nc(NC(=O)C3CCCO3)sc2c1 (centres undefined) 0.447 µM [activator, full curve, poor fit]
C/C(=N/N1CCN(c2ccccc2)CC1)c1cccc([N+](=O)[O-])c1 6.31 µM [activator, single point]
Cc1ccccc1SCCNC(=O)c1ccccc1Br 3.16 µM [activator, single point]
Cc1ccc(NC(=O)c2ccc3c(c2)NC(=O)CS3)nc1 5.62 µM [activator, single point]
CSc1ccc(/C=N/NC(=O)c2cccc(Cl)c2)cc1 3.55 µM [activator, single point]
Cc1cccc2cc(C#N)c(SCC(=O)N3CCC(C)CC3)nc12 3.98 µM [activator, single point]
COc1cccc(/C=C2\CCC(C3CCCC3)C2=O)c1 (centres undefined) 5.62 µM [activator, single point]
Cc1ccc(NC(=S)NCCc2ccccc2)nc1 5.62 µM [activator, single point]
O=C(Nc1ccccc1)c1cc2ccc3ccccc3c2s1 3.98 µM [activator, single point]
CCc1noc(C)c1C(=O)NCCc1ccccc1 2.51 µM [activator, partial curve]
Fc1cnc(N2CCc3ccccc32)nc1N1CCc2ccccc21 3.98 µM [activator, single point]
COCC(C)N=C1NN=C(c2c[nH]c3ccccc23)CS1 (centres undefined) 3.55 µM [activator, single point]
CCOc1cccc(C(=O)Nc2ccc(N3CCCC3)cc2)c1 4.47 µM [activator, partial curve]
O=C(Nc1ccc2nc(-c3ccc(Br)o3)[nH]c2c1)c1ccco1 2.51 µM [activator, partial curve]
CCc1ccc(C(=O)/C=C/NCc2ccc(F)cc2)cc1 3.55 µM [activator, single point]
COc1ccc(-c2nnc(SCC(=O)N3CCCCC3)o2)cc1 3.16 µM [activator, single point]
Cn1c2ccccc2c(=O)c2cc(C#CC3=CCCCC3)ccc21 1.26 µM [activator, single point]
Cc1cc(C(=O)CSc2nc3ccccc3n2CCC#N)c(C)n1Cc1cccs1 3.55 µM [activator, single point]
CCOc1ncccc1C(=O)OCC(=O)c1ccc(C)c(C)c1 3.98 µM [activator, single point]
Cn1ccnc1SCC(=O)c1ccc(Cl)cc1 3.55 µM [activator, partial curve]
COC(=O)N/N=C/c1ccc(Oc2ccccc2)cc1 2.24 µM [activator, partial curve]
COc1cccc(NC(=O)c2ccco2)c1 3.55 µM [activator, single point]
CCC(=NCc1ccco1)c1c(C(F)(F)F)[nH]n(-c2nc3ccccc3s2)c1=O 1.12 µM [activator, full curve, poor fit]
O=C(CCS(=O)(=O)c1ccccc1)N1CCN(c2ccc(F)cc2)CC1 3.55 µM [activator, partial curve]
